Measurements: the supplement of paper PMC9334596
Several values for one entry are separate records, joined by “and”; a condition that tells them apart may be missing. Identical values can stand only once. The full ranking holds about 5,300 compounds; the median of “PER2::LUC luminescence relative to vehicle control” is about 0.96, and the highest 2% start at about 1.3. The list shows a part of the results.

System: mPer2Luc MEF
Assay: PER2::LUC luminescence relative to vehicle control (fold of vehicle); higher = higher PER2::LUC reporter signal
Details: 10 µM
Procedure, shortened: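 Compounds from commercial libraries were added at 10 μM to 384-well plates seeded 48 h earlier with ~3000 mPer2Luc mouse embryonic fibroblasts per well. The cells were kept in DMEM with 10% FBS at 37 °C and 5% CO2. Luminescence was read with ONE-Glo 24 h and 30 h after treatment, then an alamarBlue viability assay was run. Values are PER2::LUC luminescence relative to vehicle control, as fold change.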

Structure (SMILES) | PER2::LUC luminescence (time after treatment 24 h) | PER2::LUC luminescence (time after treatment 30 h)
CC(C)[C@@H]1CC[C@@H](C)C[C@H]1O | 0.98 and 0.904 | 0.976 and 1.26
CN1CCN(CCCNc2ncc(Cl)c(-c3cc4c(C(=O)NC5CC5)cccc4s3)n2)CC1 | 0.98 | 1
COc1ccc(CCN(C)CCc2ccc(OC)c(OC)c2)cc1OC | 1.12 | 1.26
CC[N+](CC)(CC)CC | 1.16 | 1.01
O=c1cc(-c2cc(O)c(O)c(O)c2)oc2cc(O)cc(O)c12 | 0.957 | 0.941
C[C@@H](c1ncncc1F)[C@](O)(Cn1cncn1)c1ccc(F)cc1F | 1.05 | 1.19
Cc1c(NC(=O)c2ccc(C(C)(C)C)cc2)cccc1-c1cn(C)c(=O)c(Nc2ccc(C(=O)N3CCOCC3)cc2)n1 | 0.756 | 0.914
O=C(O)Cc1ccccc1Nc1c(Cl)cccc1Cl | 0.939 and 0.907 and 1.1 | 1.13 and 1.15
O=C(Nc1cc(Cl)cc(Cl)c1O)c1c(O)c(Cl)cc(Cl)c1Cl | 0.983 | 0.775
COc1cccc(OC)c1-c1ccc(C[C@H](NC(=O)c2c(Cl)cccc2Cl)C(=O)O)cc1 | 1 | 1.03
C[C@@H]1CC(=O)NN=C1c1ccc(NN=C(C#N)C#N)cc1 | 1.08 | 1.06
N#Cc1cc(-c2ccnc(Nc3ccc(N4CCOCC4)cc3)n2)ccc1OC1CCOCC1 | 0.507 | 0.584
C[C@@H]1O[C@@H](Oc2c(-c3ccc(O)c(O)c3)oc3cc(O)cc(O)c3c2=O)[C@H](O)[C@H](O)[C@H]1O | 1.09 | 0.994
CCCCCCCC/C=C\CCCCCCCC(=O)NCc1ccc(O)c(OC)c1 | 1.01 | 0.751
N=c1ccn2c(n1)O[C@H]1[C@H](O)[C@@H](CO)O[C@H]12 | 0.726 and 0.575 | 0.891 and 0.419
CC(=O)Oc1c(C)cccc1C(=O)O | 1.01 and 0.641 | 0.886 and 0.782
C[N+](C)(C)CCO.[Br-] | 1 | 1.08
CNC(=O)c1ccc2cc([C@@]3(O)CCn4cncc43)ccc2c1 | 1.06 and 1.12 | 0.938 and 1.12
CC(=O)Oc1cc(C(F)(F)F)ccc1C(=O)O | 1.03 | 1.18
Cc1cncc(CN2CCC(=C3c4ccc(Cl)cc4CCc4cccnc43)CC2)c1 | 0.855 | 0.812
CS(=O)(=O)c1ccc([C@@H](O)[C@@H](CO)NC(=O)C(Cl)Cl)cc1 | 0.601 | 0.654

Structure (SMILES) | PER2::LUC luminescence (time after treatment 24 h) | PER2::LUC luminescence (time after treatment 30 h)
Cc1ccn(-c2cc(Cl)ccc2[C@@H](Oc2cc(-c3ccc(C[C@H](N)C(=O)O)cc3)nc(N)n2)C(F)(F)F)n1 | 0.974 | 0.92
CC(C)Cc1ccc([C@H](C)C(=O)O)cc1 | 1.12 and 0.978 and 0.993 | 0.959 and 1 and 0.971
COc1cc(N(C)CCN(C)C)c(N)cc1Nc1nccc(-c2cn(C)c3ccccc23)n1 | 0.57 | 0.54
CNC(=O)c1ccccc1Oc1nc(Nc2cc(OC)c(OC)c(OC)c2)ncc1Br | 0.749 | 0.702
C[C@]12C=CC(=O)C=C1CC[C@@H]1[C@@H]2[C@@H](O)C[C@@]2(C)[C@H]1CC[C@]2(O)C(=O)CO | 0.815 | 1.07
O=c1ncn2nc(Sc3ccc(F)cc3F)ccc2c1-c1c(Cl)cccc1Cl | 0.809 | 0.843
CCOc1cc(NC(C)=O)ccc1C(=O)OC | 0.945 | 0.923
O=C(O)c1cc(=O)c2cccc(O)c2[nH]1 | 1 | 0.938
O=c1[nH]cc(F)c(=O)[nH]1 | 0.774 and 0.807 | 0.923 and 0.683
Cc1cc(OC(=O)c2c(C)cc(O)cc2O)cc(O)c1C(=O)O | 1.01 | 0.963
CCN(CC)CCOC(=O)C1(c2ccc([N+](=O)[O-])cc2)CCCC1 | 0.896 | 0.951
N[C@@H](CCC(=O)O)C(=O)O | 1.06 | 1.08
CCC(=O)O[C@H](CC(=O)O)C[N+](C)(C)C | 0.957 and 1.02 | 0.869 and 1.27
Clc1ccccc1CN1CCc2sccc2C1 | 0.982 and 0.91 | 1.01 and 0.829
COC(=O)N1CCN(Cc2cccc(NC(=O)Nc3ccc(C)nc3)c2F)CC1 | 0.996 and 0.835 | 1 and 1.06
C[C@H](CCC(=O)NCC(=O)O)[C@H]1CC[C@H]2[C@@H]3CC[C@@H]4C[C@H](O)CC[C@]4(C)[C@H]3C[C@H](O)[C@]12C | 0.955 | 0.954
O=C1CCC(c2ccccc2)(C2CCN(Cc3ccc(I)cc3)CC2)C(=O)N1 (stereo not drawn) | 0.782 | 0.705
CN(C)CCCN1c2ccccc2CCc2ccc(Cl)cc21 | 0.389 | 0.797
CO[C@@]1(NC(=O)C2SC(=C(C(N)=O)C(=O)O)S2)C(=O)N2C(C(=O)O)=C(CSc3nnnn3C)CS[C@@H]21 (stereo partly drawn) | 1.02 | 0.915
Cc1cc(NC(=O)C2=C(O)c3ccccc3S(=O)(=O)N2C)no1 | 1.05 | 1.09
Nc1nccc(-c2c(-c3ccc(F)cc3)ncn2C2CCCCC2)n1 | 0.789 | 0.827

Structure (SMILES) | PER2::LUC luminescence (time after treatment 24 h) | PER2::LUC luminescence (time after treatment 30 h)
c1cc(-c2sc(-c3ccncc3)c(-c3ccncc3)c2-c2ccncc2)ccn1 | 1.3 | 1.16
O=C1NC(=O)/C(=C\c2ccc3nccnc3c2)S1 | 1.2 | 1.23
Cc1cc(C(C)(C)CC(C)(C)C)ccc1OCCOCC[N+](C)(C)Cc1ccccc1 | 0.19 | 0.246
COC(=O)C1=C(C)NC(C)=C(C(=O)OC)C1c1ccccc1[N+](=O)[O-] | 0.944 | 1.02
NC(=O)c1cccc2[nH]c(-c3ccc(C4CCCN4)cc3F)nc12 (stereo not drawn) | 1.01 | 1.22
COc1cc2c(cc1O)CC[C@@H]1[C@@H]2CC[C@]2(C)[C@@H](O)CC[C@@H]12 | 1.02 and 0.523 | 0.96 and 0.593
CNC(=O)[C@H]1O[C@@H](n2cnc3c(NCc4ccc(N)cc4)ncnc32)[C@H](O)[C@@H]1O | 0.987 | 0.982
CC[C@H](C)[C@@H]([C@@H](CC(=O)N1CCC[C@H]1[C@H](OC)[C@@H](C)C(=O)N[C@@H](Cc1ccccc1)c1nccs1)OC)N(C)C(=O)[C@@H](NC(=O)[C@@H](NC)C(C)C)C(C)C | 0.338 | 0.385
O=c1c(O)c(-c2ccccc2)oc2ccccc12 | 1.08 | 1.05
C=CCc1cc(OC)c(O)c(C(=O)NCCO)c1 | 1 | 1.04
CO[C@@]1(NC(=O)C(C(=O)O)c2ccc(O)cc2)C(=O)N2C(C(=O)O)=C(CSc3nnnn3C)CO[C@@H]21 (stereo partly drawn) | 0.946 | 0.923
COc1cc2c(CCNC(C)=O)c[nH]c2cc1O | 0.926 | 0.815
O=C1CC[C@@H](C(=O)O)N1 | 1.02 and 0.9 | 0.995 and 0.97
CCOc1cn(-c2ccc(F)cc2C)nc1C(=O)Nc1ccc(Oc2ccnc3cc(OC)c(OC)cc23)c(F)c1 | 0.715 | 0.524
C#C[C@]1(O)CC[C@H]2[C@@H]3CCC4=CC(=O)CC[C@@H]4[C@H]3CC[C@@]21C | 1.14 | 1.02
O=C(O[C@H]1[C@H](Oc2ccccc2COC(=O)C2(O)C=CCCC2=O)O[C@H](CO)[C@@H](O)[C@@H]1O)c1ccccc1 (stereo partly drawn) | 0.824 | 0.676
Oc1cc(-c2nc(-c3ccccc3)[nH]c2-c2ccncc2)ccc1Cl | 0.619 | 0.781
CC(C)[C@H](C(=O)Nc1ccc(C(=O)NO)cc1)c1ccccc1 | 0.495 and 0.405 | 0.477 and 0.4
C#C[C@]1(OC(C)=O)CC[C@H]2[C@@H]3CCC4=C[C@@H](OC(C)=O)CC[C@@H]4[C@H]3CC[C@@]21C | 1 | 0.99
Nc1ccc(S(=O)(=O)Nc2ncccn2)cc1 | 1.02 | 1.02
CCCC(C)NC(=O)c1ccc(Cl)c(Cl)c1 (stereo not drawn) | 1.04 | 0.973

Structure (SMILES) | PER2::LUC luminescence (time after treatment 24 h) | PER2::LUC luminescence (time after treatment 30 h)
O=C1/C(=C/c2cc(Br)c(O)c(Br)c2)COC/C1=C\c1cc(Br)c(O)c(Br)c1 | 0.259 | 0.258
CNC1CCC(N(Cc2cccc(-c3ccncc3)c2)C(=O)c2sc3ccccc3c2Cl)CC1 (stereo not drawn) | 0.456 | 0.486
C[C@@H]1CC[C@@]2(OC1)O[C@H]1C[C@H]3[C@@H]4CC[C@H]5C[C@@H](O)CC[C@]5(C)[C@H]4CC[C@]3(C)[C@H]1[C@@H]2C | 0.932 | 0.927
COc1ccnc(C[S+]([O-])c2nc3cc(-n4cccc4)ccc3[nH]2)c1C (stereo not drawn) | 1.07 | 1.05
NC(=O)c1ccc2nc(-c3ccc(Oc4ccc(Cl)cc4)cc3)[nH]c2c1 | 1.29 | 1.16
Nc1ncnc2c1ncn2C1OC(C(=O)NC2CC2)C(O)C1O (stereo not drawn) | 1.19 | 1.03
NS(=O)(=O)c1ccc(C(=O)O)cc1 | 0.746 | 1.06
O=[N+]([O-])c1cc(C(F)(F)F)cc([N+](=O)[O-])c1NNC(=S)Nc1ccc(F)cc1 | 0.67 | 0.671
COc1cc2ncnc(Nc3ccc(Cl)cc3F)c2cc1OC | 0.75 | 0.764
CCN(C/C=C/C#CC(C)(C)C)Cc1cccc(OCc2cc(-c3ccsc3)cs2)c1 | 1.21 | 1.12
Cc1ccc(C(=O)NCCCCCC(=O)Nc2ccccc2N)cc1 | 0.71 | 0.746
N#Cc1ccc2[nH]c(O)c(-c3ccc(CN4CCOCC4)cn3)c2c1 | 0.875 | 0.624
CC(=O)O[C@@H]1C[C@@]2(C)C(CC[C@@H]2C(C)=O)C2CCC3=CC(=O)CC[C@]3(C)C21 (stereo partly drawn) | 1.05 | 0.991
CNc1cc(NS(=O)(=O)c2ccc(N)cc2)nc(NC)n1 | 0.947 | 0.884
CCOc1ccccc1C(N)=O | 1.03 and 0.951 | 0.986 and 0.793
COC(=O)C[C@H]1C(C)(C)[C@@H](OC(C)=O)[C@@H]2CC3=C4CC(=O)O[C@@H](c5ccoc5)[C@]4(C)CC[C@@H]3[C@@]1(C)C2=O | 0.853 | 0.862
Cc1cccc(CCN2CCC(C(=O)c3ccc(NS(C)(=O)=O)cc3)CC2)n1 | 1.02 | 1.04
CO[C@H]1C[C@@H]2CC[C@@H](C)[C@@](O)(O2)C(=O)C(=O)N2CCCC[C@H]2C(=O)O[C@H]([C@H](C)C[C@@H]2CC[C@@H](O)[C@H](OC)C2)CC(=O)[C@H](C)/C=C(\C)[C@@H](O)[C@@H](OC)C(=O)[C@H](C)C[C@H](C)/C=C/C=C/C=C/1C | 0.312 and 0.179 | 0.496 and 0.383
N[C@@H]1CCCN(c2c(/C=C3\SC(=O)NC3=O)cccc2-c2ccccc2)C1 | 0.806 | 0.821
CCN(CC)CCn1c(=O)c(Cc2ccc(OC)cc2)nc2ccccc21 | 0.816 | 0.894
CN(C)CCCCSC(=N)N | 0.922 | 0.973
